# Results from PMC4336329 (PLoS ONE, 2015).
# Screen size: about 310,000 compounds; about 2,200 (0.71%) showed an effect of 50% or more. Effects have a minus sign here. The list shows a part of the results.
# Biological target: human ether-à-go-go-related gene (hERG) potassium channel (human, UniProt Q12809)
# Experiment: primary screen, population patch clamp on CHO cells stably expressing hERG
# Sequence of human ether-à-go-go-related gene (hERG) potassium channel (Q12809 whole entry, looked up): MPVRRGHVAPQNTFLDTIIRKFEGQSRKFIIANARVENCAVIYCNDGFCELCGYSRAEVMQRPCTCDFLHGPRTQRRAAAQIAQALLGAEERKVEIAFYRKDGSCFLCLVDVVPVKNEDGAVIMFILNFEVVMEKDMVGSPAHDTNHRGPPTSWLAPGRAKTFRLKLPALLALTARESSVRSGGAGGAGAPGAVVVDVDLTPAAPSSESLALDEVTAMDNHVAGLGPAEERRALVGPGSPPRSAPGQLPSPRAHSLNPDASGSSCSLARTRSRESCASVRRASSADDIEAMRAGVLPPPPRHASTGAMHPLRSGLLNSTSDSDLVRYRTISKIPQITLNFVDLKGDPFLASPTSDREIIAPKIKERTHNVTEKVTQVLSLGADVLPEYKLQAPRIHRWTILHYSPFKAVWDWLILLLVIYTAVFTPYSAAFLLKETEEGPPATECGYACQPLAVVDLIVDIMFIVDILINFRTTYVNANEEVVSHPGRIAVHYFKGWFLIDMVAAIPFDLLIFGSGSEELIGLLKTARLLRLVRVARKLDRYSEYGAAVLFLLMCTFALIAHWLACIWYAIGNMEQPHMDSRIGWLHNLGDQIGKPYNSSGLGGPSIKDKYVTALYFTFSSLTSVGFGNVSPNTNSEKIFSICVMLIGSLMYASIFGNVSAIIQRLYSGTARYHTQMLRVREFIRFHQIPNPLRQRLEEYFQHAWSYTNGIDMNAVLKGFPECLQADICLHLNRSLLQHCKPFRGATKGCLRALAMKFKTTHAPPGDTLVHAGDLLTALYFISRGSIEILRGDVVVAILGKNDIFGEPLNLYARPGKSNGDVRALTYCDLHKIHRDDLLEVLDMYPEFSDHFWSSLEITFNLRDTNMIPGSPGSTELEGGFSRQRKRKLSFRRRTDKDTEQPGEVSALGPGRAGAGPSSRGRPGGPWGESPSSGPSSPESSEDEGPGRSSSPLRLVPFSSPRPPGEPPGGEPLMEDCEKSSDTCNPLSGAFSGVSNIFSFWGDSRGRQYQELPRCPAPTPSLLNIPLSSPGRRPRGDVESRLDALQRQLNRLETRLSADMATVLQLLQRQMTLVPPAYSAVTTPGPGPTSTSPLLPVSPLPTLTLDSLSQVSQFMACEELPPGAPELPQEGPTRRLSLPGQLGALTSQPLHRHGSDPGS
row,Structure (SMILES),"hERG current change (%, negative = inhibition) at 1uM [%]"
1,Cc1nn(CCCNC(=O)C2CCCO2)cc1Br (stereo not drawn),14.2
2,CC(=O)OCC(=O)Nc1ccc(Cl)cc1Cl,9.04
3,CCN=C1SC(CC(=O)Nc2ccc(C(F)(F)F)cc2)C(=O)N1CC (stereo not drawn),1.51
4,CCN1CCN(C(=O)C(=O)c2cn(CC(=O)N3CCCC3)c3ccccc23)CC1,15.5
5,O=C(CCC(=O)OCC(=O)c1ccc(Cl)cc1)NC1CCCCC1,13.6
6,O=c1[nH]c(=O)n(-c2ccc(F)cc2)c(O)c1C=NCCN1CCCCC1,-12.8
7,O=C(NCCn1ccc2ccccc21)c1ccc2c(c1)OCO2,7.73
8,COc1cccc(C(=O)NC2CCN(CC(=O)Nc3cccc(C)c3C)CC2)c1,17.6
9,CCOC(=O)N1CCC(NC(=O)c2cc3c(-c4ccccc4F)nn(C)c3s2)CC1,10.9
10,CC(=O)N1CCC2(CC1)CC(=O)c1cc(Cl)ccc1O2,-7.88
11,COc1cccc(C(C)NC(=O)Nc2cccc(C(F)(F)F)c2)c1 (stereo not drawn),-0.328
12,COc1ccc(NC(=O)CN2C(=O)COc3ccc(S(=O)(=O)N4CCCCC4)cc32)c(OC)c1,11.1
13,Cc1cc(C)n2nc(C(=O)NCc3cccc(C(F)(F)F)c3)nc2n1,4.77
14,COc1cc(OC)c2ccc(=O)oc2c1C(CCN1CCN(c2ccccc2)CC1)c1ccc(N(C)C)cc1 (stereo not drawn),-2.7
15,CCCNC1=CC(=O)CC(C)(C)C1,6.39
16,O=C(O)C1CCCCC1C(=O)NCCCN1CCCC1=O (stereo not drawn),18.7
17,COC(=O)CCCC1=CC2=C(c3ccccc3)C(=O)C(C)(OC(=O)C3CCCC3)C(=O)C2=CN1C1CC1 (stereo not drawn),7.39
18,COc1ccc(-c2csc(NC(=O)COC(=O)c3ccc(Br)o3)n2)cc1,13.6
19,Cc1c(C(=O)NCc2cccnc2)oc2ccc(S(=O)(=O)N3CCCCC3)cc12,-8.1
20,COc1ccc2oc(=O)c(C(=O)C[n+]3cccc(C)c3)cc2c1.[Br-],9.07
21,Cc1ccsc1C(=O)OCC(=O)Nc1cccc(S(=O)(=O)NC2=NCCCCC2)c1,12.8
22,Cc1ccc(S(=O)(=O)NC(CC(=O)O)c2ccc(F)cc2)cc1 (stereo not drawn),16.7
23,Cc1cc(C)nc(N(C#N)CC(=O)c2ccccc2)n1,-13.1

row,Structure (SMILES),"hERG current change (%, negative = inhibition) at 1uM [%]"
1,O=c1c2ccccc2[nH]c2ccc(O)cc12,5.65
2,CCn1ncc(Br)c1C(=O)Nc1sc2c(c1C(N)=O)CCC2,-3.09
3,COc1ccc(N2C(=O)CC(NNC(=O)c3cc(C)oc3C)C2=O)cc1 (stereo not drawn),7.52
4,O=C(/C=C/c1ccccc1F)c1cccc([N+](=O)[O-])c1,9.22
5,O=C1NC(c2ccccc2)Nc2c1sc(=S)n2-c1ccccc1 (stereo not drawn),8.84
6,COc1ccc(-n2c(Cc3cccn3C)nnc2SCC(=O)Nc2cccc(C)c2C)cc1,-22.6
7,O=c1c2cc(F)ccc2[nH]c(=S)n1CCCN1CCOCC1,5.39
8,O=C(c1ccco1)c1n[nH]nc1-c1ccccc1,12
9,O=C(NCC1CCCO1)Nc1ccc2c(c1)OCO2 (stereo not drawn),9.06
10,Cc1ccc(NC(=O)c2ccc(NCCCN3CCC(C)CC3)c([N+](=O)[O-])c2)c(C)c1,-1.32
11,O=c1oc2ccccc2c(Cl)c1CN1CCCCC1,17.4
12,C/C(=N\Nc1ccc(S(=O)(=O)N2CCCCC2)cn1)c1ccc(O)cc1,1.48
13,O=c1c2ccccc2nc(SCCN2CCCCC2)n1CCc1ccccc1,-10
14,CC1C(=O)N(Cc2cccc(F)c2)c2ccccc2N1C(=O)c1ccccc1 (stereo not drawn),14.6
15,COCCn1c(C)cc(C(=O)COC(=O)c2ccc3c(c2)NC(=O)CS3)c1C,4.99
16,CCOc1ccccc1N1CCN(CC(=O)Nc2ccccc2C(=O)NC2CC2)CC1,-23.5
17,CCc1ccc(/C=C2\SC(=S)N(CCCC(=O)Nc3nccs3)C2=O)cc1,8.28
18,CC/S(CC1CC1(Cl)Cl)=N\S(=O)(=O)c1ccc(C)cc1 (stereo not drawn),9.13
19,COc1ccccc1CN(CC(=O)NCc1ccco1)C(=O)CNS(=O)(=O)c1ccccc1,2.71
20,CC(/C=C/C=C/c1ccccc1)=N\NC(=O)c1cccnc1,5.88
21,COc1ccc(N2CCN(C(=O)COC(=O)CNC(=O)c3cccc(OC(F)F)c3)CC2)cc1,2.77
22,O=C(CN1CCN(Cc2ccccc2Cl)CC1)N/N=C/C=C\c1ccccc1[N+](=O)[O-],-12.3
23,CN(C)/C=C/C(=O)/C=C/c1ccc(Cl)cc1,12.2

row,Structure (SMILES),"hERG current change (%, negative = inhibition) at 1uM [%]"
1,N#C/C(=N\Nc1ccccc1Cl)C(=O)c1ccccc1,24.3
2,Cc1ccc(P(=O)(CSC(=N)N)c2ccc(C)cc2)cc1.Cl,0.713
3,CCCC(O)(c1ccc(CC)cc1)C(CN1CCOCC1)c1ccccc1.Cl (stereo not drawn),18.3
4,Cc1ccc(NC(=O)c2cc(S(=O)(=O)N3CCOCC3)cn2C)c(C)c1,5.42
5,COc1cccc(CNc2ncc(-c3ccccc3)n2C)c1,-6.74
6,CCOc1ccc(CN2CCNC(=O)C2CC(=O)NCc2cc(C)n(C)n2)cc1 (stereo not drawn),7.33
7,Cc1cc(C)nc(NC(=O)c2cccc(Br)c2)n1,15
8,CC(=O)c1c(C)[nH]c(C(=O)N2CCN(S(=O)(=O)c3ccc(F)c(F)c3)CC2)c1C,7.42
9,CCOC(=O)[C@H]1[C@H]2COc3ccc(C)cc3[C@@H]2N2C(=O)[C@@H](C)NC(=O)[C@@]12C,14
10,COc1cc(/C=C2/CC/C(=C/c3ccc(O)c(OC)c3)C2=O)ccc1O,-2.14
11,COc1ccnc(-n2cccc2C=O)c1C#N,6.53
12,OCC1(CO)COC(/C=C/c2ccccc2)=N1,4.78
13,CS(=O)(=O)Nc1nnc(SCC(=O)N(c2ccccc2)c2ccccc2)s1,12.9
14,COCC(=O)Nc1nc2ccccc2s1,6.47
15,COc1cccc(CCNS(=O)(=O)CCNC(=O)c2cccc(OC)c2)c1,11.9
16,CCOc1cc(/C=N/NS(=O)(=O)c2ccc(OC)cc2)ccc1OCCN1CCOCC1,-1.67
17,CC(C)CC(=O)C(=O)[O-].[Na+],8.28
18,CCOc1c(Br)cc(C2NS(=O)(=O)N=C3CCCCCN32)cc1OC (stereo not drawn),17.9
19,COc1ccc(C)cc1N(CC(=O)NC1CCCC1)C(=O)CCC(=O)Nc1cc(C)on1,10.1
20,COc1ccc(-c2nc3ccccn3c2C=O)cc1,7.35
21,Cc1ccc(NC(=O)CS(=O)CC(=O)Nc2cccc(C)c2C)cc1F (stereo not drawn),9.44
22,O=C1c2ccccc2C(=O)N1CCCc1nc(-c2cccnc2)no1,-2.02
23,Cc1ccc(C(=O)NNC(=O)c2cccc(C)c2)cc1,12.7

row,Structure (SMILES),"hERG current change (%, negative = inhibition) at 1uM [%]"
1,O=C(NCc1ccco1)C1(S(=O)(=O)c2ccccc2)CC=CC1,13.1
2,O=C(/C=C/Nc1ccc(Br)cn1)c1cccc(OC(F)F)c1,6.6
3,CCCc1cc(=O)oc2cc(C)cc(OC(=O)c3ccco3)c12,15
4,O=C(Nc1ccc(N2CCOCC2)c(Cl)c1)c1ccccc1Cl,18.1
5,CCCCP(=O)(CCCC)CCP(=O)(c1ccccc1)c1ccccc1,8.94
6,CC(=O)N1CCC(N(CCCOC(C)C)C(=O)Nc2ccc(Cl)cc2)CC1,2.48
7,COc1ccccc1NC(=O)CSc1nnc(Cn2c(=O)sc3ccccc32)n1C,-19
8,COc1ccc(C2=C(C#N)C(=O)OC2)cc1,-1.67
9,CC(C)C(NC(=O)c1ccccc1F)C(=O)OCC(=O)c1ccc(F)cc1 (stereo not drawn),4.29
10,CCC1=Nc2cc(C(=O)NCCN3CCOCC3)ccc2Sc2ccc(C)cc21,-14.1
11,Cc1ccc(S(=O)(=O)N2CCC(C(=O)N[C@H](C(=O)NC3CCS(=O)(=O)C3)C(C)C)CC2)cc1 (stereo partly drawn),16.5
12,COC(=O)c1cc(=O)n2c(-c3ccc(OC)cc3)csc2n1,9.02
13,COC(=O)c1ccccc1S(=O)(=O)Nc1ccc2cn[nH]c2c1,11.7
14,CCOC(=O)c1ccc(NC(=S)N2CCSC2c2ccc(Cl)cc2)cc1 (stereo not drawn),14.5
15,CN(C(=O)Nc1cnccc1C(F)(F)F)C1CCCCC1,20.4
16,Cc1nnc(SCc2cc(=O)oc3cc(O)ccc23)n1Cc1ccccc1,-0.332
17,CC(C)N(C(=O)CN1CCC(c2nc3ccccc3[nH]2)CC1)C(C)C,6.76
18,O=[N+]([O-])c1ccc(N2CCOCC2)cc1N1CCCCC1,6.72
19,COCCNCCCCOc1ccc(C)cc1[N+](=O)[O-].O=C(O)C(=O)O,1.99
20,COCCCN1CN(S(=O)(=O)c2ccc(C)cc2C)c2nc3ccccc3nc21,17.3
21,COc1cc(OC)c(C(=O)O/N=C(\N)c2ccc(C)cc2)cc1OC,0.289
